Test results taken from PubChem BioAssay AID686979 (National Center for Advancing Translational Sciences (NCATS), 2013).
Among all 420,000 compounds or so, about 50,000 (12%) were called active. Inconclusive results, whose numbers are uncertain, are shown with a selection of clear calls. Calls come from the whole dose curve; as a rule, active = well fitted inhibition curve with a large enough effect; inconclusive = small, poorly fitted or top-dose-only effect; inactive = flat fitted curve, though single readings scatter. Potencies of inconclusive entries are left out as doubtful fits.

Assay: qHTS for Inhibitors of human tyrosyl-DNA phosphodiesterase 1 (TDP1): qHTS in cells in presence of CPT; note: nearly all actives have a fitted effect of over 55% in size
Settings: chicken DT40 Tdp1-/-;hTDP1 cells + 20 nM CPT, ATP luminescence, 48 h; series mostly up to 46.2 µM
Outline: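 Cell growth measured by CellTiter-Glo luminescence after a minimum 48 h, 37 C compound exposure with 20 nM CPT in Tdp1-knockout DT40 cells stably expressing hTDP1, seeded 400/well; qHTS titration format.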
Potency is the fitted concentration of half-maximal effect; tags give direction and shape of the fitted curve.

| Compound | Potency |
| --- | --- |
| O=C(Nc1ccc(N2CCN(C(=O)c3ccco3)CC2)c(Cl)c1)c1cccnc1 | inconclusive [inhibitor, partial curve, poor fit] |
| CCOc1cc(N2CCOCC2)c(OCC)cc1NC(=O)c1[nH]c(C)c(C(C)=O)c1C | active: 8.2 µM |
| O=[N+]([O-])c1ccc2nc(C3CCCCC3)[nH]c2c1 | inconclusive [inhibitor, single point] |
| CC(C)CC(N)c1csc(Nc2ccc(C(=O)NCCCO)cn2)n1 (stereo unspecified) | inconclusive [inhibitor, single point] |
| CN(C)C(CNc1ncccn1)c1ccccc1 (stereo unspecified) | inactive |
| Cc1ccc(N=Nc2ccc(C)cc2NC(=O)Nc2ccccc2F)cc1 | inconclusive [inhibitor, single point] |
| CCC(NC(=O)c1cc(COc2cncc(Cl)c2)on1)c1ccncc1 (stereo unspecified) | inconclusive [inhibitor, partial curve] |
| O=C1COc2cc(S(=O)(=O)NCc3ccco3)c(Cl)cc2N1 | active: 18.4 µM |
| Oc1ccccc1C(=S)N1CCCCC1 | inactive |
| COc1ccc(NC(=O)Nc2nnc(C)s2)cc1 | inactive |
| OC(COCCC12CC3CC(CC(C3)C1)C2)CN1CCCCC1 (stereo unspecified) | inconclusive [inhibitor, single point] |
| COc1cccc(NC(=S)NC(C)c2ccc(OC)c(OC)c2)c1 (stereo unspecified) | inactive |
| NC(=O)c1ccccc1NC(=O)Nc1cccc(Cl)c1Cl | active: 5.8 µM |
| CC(Sc1nc(=O)cc(N)n1CCc1ccccc1)C(=O)Nc1ccc(Cl)cc1 (stereo unspecified) | inconclusive [inhibitor, single point] |
| CCN(C(=O)C1CCC(CNS(=O)(=O)c2cccc3nsnc23)CC1)c1ccc(C)c(C)c1 (stereo unspecified) | inconclusive [inhibitor, single point] |
| Nc1ncnc2c1nc(Br)n2C1CC(O)C(CO)O1 (stereo unspecified) | inactive |
| O=c1[nH]c(C2CCN(S(=O)(=O)c3cccc(Cl)c3)CC2)nc2c1nnn2Cc1ccccc1 | inconclusive [inhibitor, partial curve] |
| CCCCc1nnc2c(N(C)S(=O)(=O)c3ccccc3)nc3ccccc3n12 | inconclusive [inhibitor, single point] |
| CC1=CC(C)(C)N(S(=O)(=O)c2ccc(F)cc2)c2ccccc21 | active: 25.9 µM |
| C[C@]12CCC(=O)C=C1CC[C@@H]1[C@@H]2CC[C@@]2(C)[C@H]1CC[C@@]21CCC(=O)O1 | inconclusive [inhibitor, single point] |
| CCOc1ccc(NC(=O)CN(C)C(=O)c2cc([N+](=O)[O-])ccc2Sc2ccccc2)cc1OCC | inconclusive [inhibitor, single point] |
| O=C(/C=C/c1ccccc1)NNc1ccc(Cl)cc1 | inactive |
| COc1ccc2c(c1)c1nc3ccccc3nc1n2Cc1ccc(OC)c(OC)c1 | inconclusive [inhibitor, single point] |

| Compound | Potency |
| --- | --- |
| C/C(=N\NC(=O)C1COc2ccccc2O1)c1ccc(N2CCOCC2)cc1 (stereo unspecified) | inactive |
| COc1ccc(CC(=O)NCC2(c3ccc(OC)c(OC)c3)CCCC2)cc1 | inconclusive [inhibitor, single point] |
| CCOc1ccc(CCNC(=O)CSCc2ccc(C)cc2)cc1OCC | inconclusive [inhibitor, single point] |
| O=C1S/C(=C\c2ccc(N3CCOCC3)o2)C(=O)N1c1ccccc1 | active: 1.64 µM |
| CC(C)C(c1nnnn1Cc1ccccc1)N1CCN(Cc2ccco2)CC1 (stereo unspecified) | inactive |
| Cc1cc(C(=O)OCn2nnc3ccccc3c2=O)c(C)n1-c1ccccc1 | inconclusive [inhibitor, single point] |
| CC(C)CCn1c(Oc2ccccc2Cl)nc2c1c(=O)n(C)c(=O)n2C | inconclusive [inhibitor, single point] |
| COc1cccc(NC(=O)CN2C(=O)C(=O)N(C3CCCC3)C2=O)c1 | inactive |
| Cc1noc(C)c1COc1cccc(C(=O)OC(C)C(=O)Nc2ccc3c(c2)OCO3)c1 (stereo unspecified) | active: 1.03 µM |
| CC(C)(Oc1ccc(Cl)cc1)C(=O)NCc1ccc(S(N)(=O)=O)cc1 | inactive |
| O=C(CCNC(=O)c1ccc(Br)cc1)Nc1ccccc1N1CCCC1 | inactive |
| Cc1cccc(C(=O)Nc2sc3c(c2C(=O)N2CCCCC2)CCC(C)C3)c1 (stereo unspecified) | inconclusive [inhibitor, single point] |
| COc1cc2c(cc1OC)[C@@H](NC(=O)CCc1ccccc1)[C@H](OCc1ccccc1)C2 | active: 10.3 µM |
| COc1ccc(C(CC(=O)N2CCOCC2)c2c(OC)cc(OC)c3c(-c4ccccc4)cc(=O)oc23)cc1 (stereo unspecified) | inconclusive [inhibitor, single point] |
| O=C(CCc1cn(Cc2ccc(F)cc2)c2ccccc12)NCCc1ccc(Cl)cc1 | inconclusive [inhibitor, partial curve] |
| Cc1oc2ccc(O)c(CN(C)Cc3ccccc3)c2c1C(=O)Nc1ccccc1 | active: 9.2 µM |
| CCOC(=O)C1CCN(C(=O)c2ccccc2)c2scc(-c3ccccc3)c2C1=O (stereo unspecified) | inconclusive [inhibitor, single point] |
| COc1ccccc1N(CC(=O)NCCSCc1ccc(C)cc1)S(=O)(=O)c1ccccc1 | inconclusive [inhibitor, single point] |
| COc1ccc(-c2nn(-c3ccccc3)cc2/C=N/Nc2cccc(C(=O)O)c2)cc1 | inactive |
| COc1ccccc1C1(O)C(=O)Nc2ccc(C)cc21 (stereo unspecified) | inactive |
| COc1ccc(CNC(=O)c2cc(COc3c(F)cccc3F)on2)cc1OC | inconclusive [inhibitor, single point] |
| CCN(CC)C(=O)c1cccc(NC(=O)CCc2nc3sc4c(c3c(=O)[nH]2)CCCC4)c1 | inconclusive [inhibitor, single point] |
| CC1CN(S(=O)(=O)c2ccc(C(=O)Nc3ccc(S(=O)(=O)N4CCOCC4)cc3)cc2)CC(C)O1 (stereo unspecified) | inconclusive [inhibitor, single point] |
